Laboratory results as given in PubChem BioAssay AID1460 (National Center for Advancing Translational Sciences (NCATS), 2008).
Screen size: about 270,000 compounds; about 5,800 (2.1%) were called active. Inconclusive means that the source gave no clear call. Such entries were picked first, then a sample of the others. The call rests on the fitted dose curve; in most records, active means well fitted inhibition curve with a large enough effect; inconclusive means small, poorly fitted or top-dose-only effect; inactive means flat fitted curve, though single readings scatter. A potency beside an inconclusive call is a rough fit, not a confirmed value.

What follows are compounds tested against Microtubule-associated protein tau (Homo sapiens) (UniProt P10636) (assay: qHTS for Inhibitors of Tau Fibril Formation, Thioflavin T Binding). Conditions: recombinant tau K18 P301L (four-repeat tau fragment), heparin-induced fibrillization, ThT fluorescence; series mostly up to 57.4 µM.
Text: NIH Molecular Libraries Probe Production Network [MLPCN]
NIH Chemical Genomics Center [NCGC]
Assay Provider: Carlo Ballatore, University of Pennsylvania
The microtubule-associated protein tau is an abundant protein in the axons of neurons that stabilizes microtubules. With its ability to modulate microtubule dynamics, tau contributes directly or indirectly, to key structural and regulatory cellular functions. Particularly important is the influence tau exerts on axonal transport, which allows signaling molecules, trophic factors and other essential cellular constituents to travel along the axons. Under pathological conditions, tau becomes sequestered into insoluble aggregates called neurofibrillary tangles. This phenomenon is believed to have pathological consequences by promoting axonal transport deficits that ultimately lead to synaptic dysfunction and neuronal loss. To identify inhibitors of tau aggregation, a heparin-induced tau fibril formation assay was used that employed a recombinantly expressed fragment of tau, K18 (Q242-E372), bearing a P301L mutation (Gustke et al. 1994; Hong et al. 1998). This assay monitors tau fibrillization by Thioflavin T (ThT) fluorescence.
Gustke, N., B. Trinczek, et al. (1994). "Domains of tau protein and interactions with microtubules." Biochemistry 33(32): 9511-22.
Hong, M., V. Zhukareva, et al. (1998).
Li, W. and V. M. Lee (2006).
von Bergen, M., S. Barghorn, et al. (2001). "Mutations of tau protein in frontotemporal dementia promote aggregation of paired helical filaments by enhancing local beta-structure." J Biol Chem 276(51): 48165-74.
NCGC Assay Protocol Summary:
For screening, 2 uL/well human K18 P301L (15 uM unlabeled and 0.24 uM Alexa 594-labeled tau, final concentrations) in reagent buffer (100 mM sodium acetate pH 7) was dispensed into black solid 1536-well plates (Grenier) using a solenoid-based dispenser. Following transfer of 23 nL compound or DMSO vehicle by a pin tool, 2 uL/well heparin (20 uM final concentration) in reagent buffer was added and the plate centrifuged 15 s at 1000 RPM. Plates were incubated 6 hr at 37 C and then 1 uL/well ThT (30 uM final concentration) was added. After a 1 hr ambient incubation, the plates were read by an Envision (Perkin Elmer) to monitor ThT fluorescence (450/8 nm excitation and 510/23 nm emission).
Keywords: NIH Roadmap, MLPCN, MLI, MLSMR, NCGC, qHTS, tau, tauopathies, Alzheimer's disease, fibril, neurodegeneration, aggregation
Further: nearly all actives have a fitted effect of over 55% in size.
On the % scale 0 is the no-effect control and ±100 the full control effect; potency means the concentration at half of the fitted maximal effect; tags describe the fitted curve by direction and shape.

UniProt P10636, sequence (P10636 whole entry, looked up, the tested form may be a part): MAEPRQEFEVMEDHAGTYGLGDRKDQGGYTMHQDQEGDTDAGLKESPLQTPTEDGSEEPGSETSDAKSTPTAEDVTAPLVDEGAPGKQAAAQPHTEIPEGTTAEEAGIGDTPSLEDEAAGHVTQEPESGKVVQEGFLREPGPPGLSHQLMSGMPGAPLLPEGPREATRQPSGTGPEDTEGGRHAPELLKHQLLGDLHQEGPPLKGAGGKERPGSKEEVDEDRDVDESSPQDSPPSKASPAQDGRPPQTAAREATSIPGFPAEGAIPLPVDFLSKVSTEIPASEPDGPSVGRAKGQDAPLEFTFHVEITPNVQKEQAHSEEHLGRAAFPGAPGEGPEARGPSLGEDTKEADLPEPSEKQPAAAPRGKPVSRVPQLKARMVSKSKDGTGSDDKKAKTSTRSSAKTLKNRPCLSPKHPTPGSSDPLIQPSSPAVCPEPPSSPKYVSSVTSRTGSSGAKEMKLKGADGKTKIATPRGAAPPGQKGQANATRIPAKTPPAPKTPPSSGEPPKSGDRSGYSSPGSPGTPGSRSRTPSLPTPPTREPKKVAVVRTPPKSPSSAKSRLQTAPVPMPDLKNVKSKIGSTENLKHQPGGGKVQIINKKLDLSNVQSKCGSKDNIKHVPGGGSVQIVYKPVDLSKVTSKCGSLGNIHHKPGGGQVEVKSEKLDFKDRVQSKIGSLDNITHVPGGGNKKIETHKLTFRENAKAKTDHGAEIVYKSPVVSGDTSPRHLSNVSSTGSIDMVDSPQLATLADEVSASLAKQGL

| SMILES | Potency | activity, negative = inhibition |
| --- | --- | --- |
| COc1ccc(NC2=C(c3ccc(OC)cc3)C(=O)c3ccccc32)cc1 | inconclusive: 1.58 µM [inhibitor, full curve] |  |
| CN[C@H]1CCc2cc(OC)c(OC)c(OC)c2-c2ccc(N[C@@H]3CCCCNC3=O)c(=O)cc21 | inconclusive: 0.0631 µM [inhibitor, full curve, poor fit] |  |
| NCCC(O)(P(=O)(O)O)P(=O)(O)O | inactive |  |
| O=C1CN(C(=O)COc2ccc(Cl)cc2Cl)C(c2ccc(F)cc2)c2cc(F)ccc2N1 (stereo not given) | inactive |  |
| COc1ccccc1C1=NOC(COc2ccc3c(C)cc(=O)oc3c2)C1 (stereo not given) | inconclusive: 7.94 µM [inhibitor, full curve] |  |
| O=C(NCC1CCCO1)/C(=C\c1ccco1)NC(=O)c1ccc(Cl)cc1 (stereo not given) | inactive |  |
| COc1cc(OC)c(NC(=O)c2cnc(N3CCCC3)nc2C)cc1Cl | inconclusive: 12.6 µM [inhibitor, partial curve] |  |
| CCc1n[nH]c(=S)n1/N=C/c1ccc(N(C)c2ccccc2)cc1 | inconclusive: 35.5 µM [inhibitor, partial curve, poor fit] |  |
| CCOc1ccc2nc(N3CCCC(C(=O)NCc4ccc(OC)cc4)C3)sc2c1 (stereo not given) | inconclusive: 11.2 µM [inhibitor, partial curve] |  |
| CCN(CC)c1ccc(NC(=O)c2ccc3c(c2)c(C)c(C)n3C)cc1 | active: 3.98 µM |  |
| N#Cc1c(-c2cccc(Br)c2)cc(-c2ccco2)[nH]c1=O | inconclusive: 22.4 µM [inhibitor, single point] |  |
| O=C1NN(c2ccccc2)C(=O)/C1=C/c1cccs1 | inconclusive: 39.8 µM [inhibitor, single point] |  |
| CC[n+]1c(/C=C(\C)Nc2ccccc2)sc2ccccc21 | inconclusive: 11.2 µM [inhibitor, partial curve] |  |
| Cc1ccc(NC(=O)N2CCN(c3nnc(C)c4c(C)n(-c5ccccc5)nc34)CC2)c(Cl)c1 | inactive |  |
| CC(CC(=O)N1CCN(c2ccccc2)CC1)c1ccccc1 (stereo not given) | inactive |  |
| CCOc1cc(N2CCOCC2)c(OCC)cc1NC(=O)c1ccc2ccccc2n1 | active: 25.1 µM |  |
| Cc1cc(C)c(Nc2cc(S(=O)(=O)O)c(N)c3c2C(=O)c2ccccc2C3=O)c(C)c1 | active: 7.94 µM |  |
| CCCCN1C(=O)c2ccccc2C1C(=O)NC1CCCC1 (stereo not given) | inactive |  |
| CCOC(=O)N1CCc2c(sc(NCc3cccs3)c2C(=O)Nc2cc(OC)ccc2OC)C1 | inconclusive: 25.1 µM [inhibitor, single point] |  |
| CSc1ccc(NC(=O)Nc2ccc(C(=O)NCC(=O)O)cc2)cc1 | inconclusive: 4.47 µM [inhibitor, partial curve] |  |
| CC1(C)N([O-])c2cc([N+](=O)[O-])ccc2[N+]1=O | active: 2 µM |  |
| COc1ccc2[nH]c3c(=S)nc[nH]c3c2c1 | inconclusive: 25.1 µM [inhibitor, partial curve, poor fit] |  |
| COc1cccc(C(=O)NCC(c2ccc(N(C)C)cc2)N2CCOCC2)c1OC (stereo not given) | inconclusive: 25.1 µM [inhibitor, partial curve] |  |
| COc1ccc(N2CCC(CNC(=O)Nc3ccc(Cl)cc3)C2)cc1 (stereo not given) | inconclusive: 17.8 µM [inhibitor, partial curve, poor fit] |  |

| SMILES | Potency | activity, negative = inhibition |
| --- | --- | --- |
| CNS(=O)(=O)c1ccc2nc(NC(=O)c3ccc(N4C(=O)CCC4=O)cc3)sc2c1 | inactive |  |
| COc1ccc(-c2nnc3sc(COc4ccc(C)cc4)nn23)cc1 | inconclusive: 3.98 µM [inhibitor, full curve] |  |
| COC(=O)C/C=C\[C@@H](C)[C@@H](/C=N\OC[C@@H](C)[C@H](OCc1ccccc1)C(C)C)NS(=O)(=O)c1ccc(C)cc1 |  | inactive: -7.63% [at 11.5 µM] |
| CC(=O)Nc1ccc(N=Nc2c(C)[nH]n(C(N)=S)c2=O)cc1 | active: 8.91 µM |  |
| O=C(N/N=C/C=C\c1ccccc1[N+](=O)[O-])c1cccs1 | inconclusive: 28.2 µM [inhibitor, partial curve] |  |
| CCOC(=O)N1CCN(C2CC(=O)N(c3ccccc3)C2=O)CC1 (stereo not given) | inactive |  |
| O=C(Nc1ccc(N2CCN(C(=O)c3cccs3)CC2)c(Cl)c1)c1ccco1 | inconclusive: 5.01 µM [inhibitor, partial curve] |  |
| CSc1cccc(NC(=O)CCCOc2ccc(Cl)cc2C)c1 | inconclusive: 17.8 µM [inhibitor, partial curve] |  |
| O=C1COc2ccc(C(=O)CSc3nnc(-c4cccs4)n3Cc3ccccc3)cc2N1 | inconclusive: 15.8 µM [inhibitor, partial curve] |  |
| Cc1noc(/C=C/N(C)C)c1S(=O)(=O)N1CCCC(C(=O)NCc2ccc(F)cc2)C1 (stereo not given) | inconclusive: 28.2 µM [inhibitor, partial curve] |  |
| COc1ccc2cc(-c3cn4c(n3)sc3cc(F)ccc34)c(=O)oc2c1 | inconclusive: 14.1 µM [inhibitor, partial curve, poor fit] |  |
| C=C[C@](C)(O)CCC1C(=C)CC(OC(C)=O)C2C(C)(C)CCCC12C (stereo not given in full) | inconclusive: 25.1 µM [inhibitor, partial curve, poor fit] |  |
| CC(C)S(=O)(=O)c1oc(-c2ccc(F)cc2)nc1S(=O)(=O)c1ccc(F)cc1 | inconclusive: 2.51 µM [inhibitor, partial curve, poor fit] |  |
| O=C(c1ccc(CSc2nc3ccncc3n2Cc2ccccc2F)cc1)N1CCCCCC1 | inactive |  |
| Cc1ccc2oc(/N=C(\N)NC(=O)C(C)(C)C)nc2c1 | inactive |  |
| CC1=NN(c2ccccc2)C(=O)/C1=C/c1cc2cc(C)ccc2nc1N1CCCCC1 | inconclusive: 14.1 µM [inhibitor, partial curve] |  |
| O=C(O)CCC(=O)Nc1ccc(C(=O)OCC(=O)c2ccc(Cl)cc2Cl)cc1 | inconclusive: 8.91 µM [inhibitor, full curve, poor fit] |  |
| Cc1cc(C)c2c(=O)n(CC(=O)Nc3ccc(Br)c(C)c3)sc2n1 | inconclusive: 25.1 µM [inhibitor, partial curve] |  |
| Cc1ccc(-n2c(C)cc(C(=O)COc3cccnc3[N+](=O)[O-])c2C)cc1 | inconclusive: 28.2 µM [inhibitor, single point] |  |
| CCCCn1c(SCC(=O)c2ccc(OC)c(OC)c2)nc2cc(S(N)(=O)=O)ccc21 | inactive |  |
| COc1ccccc1CCNC(=O)CSc1ccc(-c2ccco2)nn1 | inconclusive: 44.7 µM [inhibitor, single point] |  |
| CCc1c(C(=O)Nc2cc(C)ccc2OC)[nH]c(C)c1C(C)=O | inactive |  |
| O=[N+]([O-])c1cccc(/C=N/n2cnnc2)c1O | active: 15.8 µM |  |
| CCC(=O)NC(=S)Nc1ccc(NC(=O)COc2ccc([N+](=O)[O-])cc2)cc1 | inconclusive: 12.6 µM [inhibitor, partial curve] |  |

| SMILES | Potency | activity, negative = inhibition |
| --- | --- | --- |
| COc1ccc(-c2csc(NC(=S)NC(=O)/C=C/c3ccccc3)n2)cc1Br | inconclusive: 7.94 µM [inhibitor, partial curve] |  |
| Cc1cccc(C)c1OCC(=O)N/N=C/C=C/c1ccco1 | inconclusive: 25.1 µM [inhibitor, single point] |  |
| Cc1[nH]c2ccccc2c1CC(=O)O | inconclusive: 10 µM [inhibitor, partial curve] |  |
| COc1cccc(C2=NN(C(C)=O)C(c3cn(-c4ccccc4)nc3-c3cccs3)C2)c1 (stereo not given) | inactive |  |
| O=C(Nc1ccc2c(c1)CCC2)C1COc2ccccc2O1 (stereo not given) | inconclusive: 17.8 µM [inhibitor, single point] |  |
| Cc1nnc2sc(SCc3ccccc3Cl)nn2c1=O | inconclusive: 39.8 µM [inhibitor, single point] |  |
| CC(C)Oc1ccc2ccccc2c1C=O | inconclusive: 39.8 µM [inhibitor, single point] |  |
| CCOC(=O)c1ccc(NC(=O)COc2ccccc2OC)cc1 | inconclusive: 31.6 µM [inhibitor, partial curve] |  |
| CNc1c(N)c(=O)oc2ccccc12 | inconclusive: 11.2 µM [inhibitor, partial curve] |  |
| O=C(c1ccco1)[C@@H]1[C@@H]2C(=O)N(c3ccccc3)C(=O)[C@@H]2C2c3ccccc3C=CN21 (stereo not given in full) | active: 25.1 µM |  |
| CC(=O)Nc1ccc(-n2cc3c(c2-c2ccc(C)cc2)c(=O)n(C)c(=O)n3C)cc1 | inactive |  |
| CC(C)(C)C1CCc2nc(NC(=O)COc3ccc(F)cc3)sc2C1 (stereo not given) | inconclusive: 0.708 µM [inhibitor, full curve, poor fit] |  |
| CCC(=O)Nc1ccccc1-c1nc2ccccc2n(C(CC)C(=O)Nc2cccc(C(C)=O)c2)c1=O (stereo not given) | inactive |  |
| COc1cccc(CC2(CO)CCCN(CC3=Cc4cc(OC)ccc4OC3)C2)c1 (stereo not given) | inconclusive: 44.7 µM [inhibitor, single point] |  |
| CCNc1ccc([N+](=O)[O-])cc1 | inconclusive: 35.5 µM [inhibitor, single point] |  |
| CCC(C)NC(=O)C1CCN(C(=O)c2cc3sccc3n2Cc2ccc(Cl)cc2)CC1 (stereo not given) | inactive |  |
| Cc1csc(N(C)C(=O)CSc2nnc(COc3cccc4ccccc34)o2)n1 | inconclusive: 2 µM [inhibitor, full curve] |  |
| COC(=O)CN(CCc1ccccc1)S(=O)(=O)c1ccc(OC)c(OC)c1 | inactive |  |
| S=C(NCCCN1CCOCC1)NCCCN1CCOCC1 | inactive |  |
| O=C(Nc1ccc(N2CCCCCC2)cc1)c1ccccc1Cl | inconclusive: 20 µM [inhibitor, partial curve, poor fit] |  |
| Cc1cc(=O)c2ccccc2n1CC(=O)NCc1ccccc1 | inactive |  |
| CCOc1ccc(N2C(=O)c3cccnc3C2=O)cc1 | inactive |  |
